PMC12136788
This is one part of the list.

B1: chr15:103023306:103023307:-_ENSMUSG00000009575_ENSMUST00000118152|mus_mus|FALSE|FALSE (ssRNA)
RNA: GGGAGUUCUACAGUCCGACGAUCAGAAACUCACCAAGGUCACUAAGUACUUCCAAACUUGGAAGUAGCUCAGUGAGGGCUAAAAAAACUUCGACUGAAGGUAUCCUCCACAGGCAAUCCUAAAGGAGUUGAUCAGCUCUGAUCCAACAGAGGAUUGAGCAUCA
B2: chr6:71460543:71460544:+_ENSMUSG00000052656_ENSMUST00000064637|mus_mus|motif|central (ssRNA)
RNA: GGGAGUUCUACAGUCCGACGAUCCAACCAAAUAAAUUCUGUCAUCAACAUCAGCAUAAUGUGUAUUUCCUGUCACUGCACGGACAUUAAACUAAACUUCAAACCACAAAAACAUUGUGACUAACAUUAAAAAGGCAAGCUGUACAACAGAGGAUUGAGCAUCA
B3: 176755942_176756202_1265_CDS_ENSG00000177565_ENST00000430069|human|control|control (ssRNA)
RNA: GGGAGUUCUACAGUCCGACGAUCGAUAGCAUUUACUUCAUUCGUAUGUCCUUGGAAUGUUUUAAUAGGUCUGUCUUGUCCUAAUUUACAGACAUGAAUGCACAUAUCUGUACUACAAGAAGCAAAGGUGUUGUUGCUCUGCCACAACAGAGGAUUGAGCAUCA
B4: 86378530_86380689_1287_CDS_ENSG00000132305_ENST00000449247|human|control|control (ssRNA)
RNA: GGGAGUUCUACAGUCCGACGAUCGAUGUGCUGCUUUUCGGUGGCCUUCUGUUCUGCCAGCUCUCUGUUCAGCUGAUCAAUACGACGAUGUGCAUGAGCAAUGAGGGAGUUCAGAUCAUCAGUAGAGAGCUUGUCAGCUAAGUCCAACAGAGGAUUGAGCAUCA
B5: chr8:101937209:101937210:-_ENSG00000164924_ENST00000353245|hu_mus|FALSE|FALSE (ssRNA)
RNA: GGGAGUUCUACAGUCCGACGAUCAUCACCAGCAGCAACCUCGGCCAAGUAACGGUAGUAGUCACCCUUCAUUUUCAAAUAGAAGACUUUGCUUUCUGGUUGCGAAGCAUUGGGGAUCAAGAACUUUUCCAAAAGAGACAGUACCAACAGAGGAUUGAGCAUCA
B6: chr5:89070800:89070801:+_ENSMUSG00000029291_ENSMUST00000031229|mus_mus|FALSE|FALSE (ssRNA)
RNA: GGGAGUUCUACAGUCCGACGAUCUAAAGGCUCAUGUAUAUAAAAGCCUGCCUCCCCAAAUCAAAAAUAGUUCUUUUUUAAAAUCAAAGUAUUUAUAGAAUUAUUUACAGUGUAGAGCCUAGAAAGGGUUGCAUCUGUGGUCACCAACAGAGGAUUGAGCAUCA
B7: chr10:88199856:88199857:+_ENSMUSG00000060904_ENSMUST00000116234|mus_hu|motif|central (ssRNA)
RNA: GGGAGUUCUACAGUCCGACGAUCUGCAUCUGUGUUUGAAUAGUAACAUCUCCAGUAUGGCCUGAUACUUGUCUGUCCUCCGGAAUCCCAGACUUGGAAUUUAAGGUUUUUGUACGUCACCGUCUCUACAUUAAAUCCAAUGGUCAACAGAGGAUUGAGCAUCA
B8: chr2:5814250:5814251:-_ENSMUSG00000025816_ENSMUST00000102981|mus_hu|mus_mus_mus_hu_True|18_38 (ssRNA)
RNA: GGGAGUUCUACAGUCCGACGAUCUUCCUUUCCGGUUUCUGAAUUUCUGGUAGAACUGCACAGAAUGGUUUGAUAACUUCUAAAAAUUUGAUGCCCAUGGCGGCGGCUGGGGAGGCCCGGCGGGCACCCGCGGCCUCGGCGCUGCAACAGAGGAUUGAGCAUCA
B9: chr11:22646265:22646266:-_ENSG00000183161_ENST00000327470|hu_hu|FALSE|FALSE (ssRNA)
RNA: GGGAGUUCUACAGUCCGACGAUCCAGCAUUGCCUAUACAGAACUGAGGCCUGCGCUGAGACCCAAAACUUGUCUUUUCCUAAAUGCACCACUACGAAGAGCUAAUAAGAGGUCUGUCCAGAUGCUAAGACCAGGUACUUCAAACAACAGAGGAUUGAGCAUCA
B10: chr16:45382771:45382772:-_ENSMUSG00000022661_ENSMUST00000163230|mus_mus|mus_mus_mus_hu_True|48_88 (ssRNA)
RNA: GGGAGUUCUACAGUCCGACGAUCCUGGGUCAUGUUAUAAGACAAAUGGAUAGGGAGGGCAUGCUUCUCAAAAAAUGUGAGCUAUUGACUAAGACUAACAAUAUUUAUCUAGCUAUAAAAAUAAGUUAAAUGAAUAAGUUAAGACAACAGAGGAUUGAGCAUCA
B11: chr4:124533079:124533080:-_ENSMUSG00000042763_ENSMUST00000064444|mus_mus|FALSE|FALSE (ssRNA)
RNA: GGGAGUUCUACAGUCCGACGAUCUCCACUGUGCUAAAGCUAGCCAGCCUAGCCAUACACUGAUGUGUCCCAGACUGACCUAGUGGUCAGCACUUAGGAGAACUGGAAGAGGAAUGUGUACUGGCAUACACCAUUUCAUACUUACAACAGAGGAUUGAGCAUCA
B12: chr10:33190432:33190433:-_ENSG00000150093_ENST00000302278|hu_mus|hu_hu_hu_mus_True|58_108 (ssRNA)
RNA: GGGAGUUCUACAGUCCGACGAUCUACAUUUUCAAAACCUGCAUGUGAAUAAAACCCUGGCCACAGAGCCCCAAAACUACCUAACUGUGACUAAGAUGCUGCUGCUGUGAGCUUGGUGUUGCAAAAUCCGCCUGAGUAGGAUUCCAACAGAGGAUUGAGCAUCA
B13: 44151637_44155220_1000_CDS_ENSMUSG00000035696_ENSMUST00000045793|mouse|control|control (ssRNA)
RNA: GGGAGUUCUACAGUCCGACGAUCAGUAAAACUGCCUACUUGAAGAUGUUCUCCUAAGAGCUCCACUUCAUUUUCUAUCCUCUGCAGAGGCGAUCGUGACUGCUGUGUUUGGAAAGGGACAAAUUGGCCUGGUGGUGGCAAGUGCAACAGAGGAUUGAGCAUCA
B14: chr1:109605286:109605287:-_ENSG00000197780_ENST00000461096|hu_mus|hu_hu_hu_mus_True|28_78 (ssRNA)
RNA: GGGAGUUCUACAGUCCGACGAUCAAGUUUCAGAGUAACAUUCAGUAACCUCUUUAACAAUUGUAAUCCUUAUUAUAAGCUAAGCAGAAUAAUAAUUUAAUACCGUAAGUAAAUACAACACAAAGCCUGAACCGCGAAAAUGGUCAACAGAGGAUUGAGCAUCA
B15: chr2:24222969:24222970:+_ENSG00000173960_ENST00000309033|hu_hu|FALSE|FALSE (ssRNA)
RNA: GGGAGUUCUACAGUCCGACGAUCAUUCUAAACAAUACAGCUAUUUAAUAUAUCUUGAUAACUGGUAUUUGAAAAUAAGUCUAUUUUUCUGGGUAGUCUUUUGGAGAAAGUGCACUGAAUAUAGUUUCCAGUCAUAUGCUACUUCAACAGAGGAUUGAGCAUCA
B16: 35030014_35030134_388_CDS_ENSMUSG00000038784_ENSMUST00000114993|mouse|control|control (ssRNA)
RNA: GGGAGUUCUACAGUCCGACGAUCAAAUCGGCAUAUCUGGUAGCCACAGGUGCAAGGGAAAAAGUUAAUAUCAUCUAUUUCCAAGGGCUCCAUGCAAAGAGGGCAUUCCACAGGGUCUUCCUUUGCAUCAGGACUGCGAGACAUCAACAGAGGAUUGAGCAUCA
B17: 120000320_120000440_688_CDS_ENSMUSG00000061306_ENSMUST00000103018|mouse|control|control (ssRNA)
RNA: GGGAGUUCUACAGUCCGACGAUCGAAGAGGAGCGCCAUGGCACUGAAGGACUGGAUAGAGGCCAUCAUGUUUCUCUGCAGGCUGAGCGGGAGCACAAUGAACAGGGACACUGCGAAGAGCAGGAACACACGGACAGUCCUGGUCAACAGAGGAUUGAGCAUCA
B18: chr5:116097646:116097647:+_ENSMUSG00000029518_ENSMUST00000031492|mus_hu|FALSE|FALSE (ssRNA)
RNA: GGGAGUUCUACAGUCCGACGAUCAAAAGCAUAAUUAGAAACUUUCAAUACAGAAAUACUCCUAGCAAACCAUUGAAAAGUGGUGUUUGUUUGACAGGAAUUUCACAUCAGGUCCACUAGGACGUCGGUCCAGCCCUGAGUCCCCAACAGAGGAUUGAGCAUCA
B19: chr1:120316058:120316059:+_ENSMUSG00000064302_ENSMUST00000049404|mus_hu|FALSE|FALSE (ssRNA)
RNA: GGGAGUUCUACAGUCCGACGAUCCACCAUGUGUGUCUGAAGAGCAGCUGGUAGGAUAUUAAAAGUCCAAUUUAAAUAACUAGUAGGAGAUAAAGGAGUGAGUGGCAGAGUGAUGUUCUACUACUGGGUCUGAAAUACUUCAUACAACAGAGGAUUGAGCAUCA
B20: chr9:107926503:107926504:+_ENSMUSG00000032594_ENSMUST00000035214|mus_mus|FALSE|FALSE (ssRNA)
RNA: GGGAGUUCUACAGUCCGACGAUCGGGGGCCGGUUGCACACUGAUGGCAGACGAUGCAGCACAUGGACCACAAAAGGAGAGCUAAGUUGAUCCUGGCUAGUGGGAGGCCAAUGGUCACAGUCUGCUUAGUUUACUGUUCUGUCCCAACAGAGGAUUGAGCAUCA
B21: chr4:47850210:47850211:-_ENSG00000170448_ENST00000381538|hu_hu|FALSE|FALSE (ssRNA)
RNA: GGGAGUUCUACAGUCCGACGAUCUACAUUAAAAGAUCAAAACUUUUUUUAAUUGACAUCAUGGGUGAUGUACCAGGCAAACACUACAACCACAACUCCACACACUGAAAUGAGAUAAUAUUUAUGUUUUUGCCAUAGUGAUAGCAACAGAGGAUUGAGCAUCA
B22: chr2:202488911:202488912:-_ENSG00000155755_ENST00000286196|hu_mus|hu_hu_hu_mus_False|8_58 (ssRNA)
RNA: GGGAGUUCUACAGUCCGACGAUCAUUGAAACAUUUUUCAUAAUCUCCAGUAGCAUUUCAGCAUUAUGUAACAAAAGAUCUAUUACAAAUACAUGUAUCUUAUAAAAAUACACUUAAAAACACGAGUAAAAAUGGGAGGCGCCACAACAGAGGAUUGAGCAUCA

Biological target: T1, UNK ZnF1-3 (human, UniProt Q9C0B0 31-174)
T1 sequence: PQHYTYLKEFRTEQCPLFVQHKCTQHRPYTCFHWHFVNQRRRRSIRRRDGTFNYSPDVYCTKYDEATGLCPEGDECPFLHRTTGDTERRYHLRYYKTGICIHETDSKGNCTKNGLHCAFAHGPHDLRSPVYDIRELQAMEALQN
Experiment: nsRBNS (natural sequence RNA bind-n-seq); RBNS binding buffer (assumed for nsRBNS): 25 mM Tris pH 7.5, 150 mM KCl, 3 mM MgCl2, 0.01% Triton X-100, 500 ug/ml BSA, 20 U/ml SUPERase-In, 4 C; UNK is unkempt and MSI1 is Musashi-1; names of the RNAs are library labels; protein concentration not given here; high values mean tight binding

| Binder | binding signal |
| --- | --- |
| B1 | 1.38 enrichment R |
| B2 | 1.18 enrichment R |
| B3 | 0.937 enrichment R |
| B4 | 0.89 enrichment R |
| B5 | 1.26 enrichment R |
| B6 | 2.25 enrichment R |
| B7 | 1.08 enrichment R |
| B8 | 0.82 enrichment R |
| B9 | 1.35 enrichment R |
| B10 | 2.26 enrichment R |
| B11 | 0.545 enrichment R |
| B12 | 1.36 enrichment R |
| B13 | 1.32 enrichment R |
| B14 | 1.03 enrichment R |
| B15 | 1.06 enrichment R |
| B16 | 0.893 enrichment R |
| B17 | 1.75 enrichment R |
| B18 | 1.02 enrichment R |
| B19 | 2.12 enrichment R |
| B20 | 1.65 enrichment R |
| B21 | 1.41 enrichment R |
| B22 | 1.34 enrichment R |
